Several values for one entry are separate records, joined by “and”; a condition that tells them apart may be missing. Equal entries are not always repeated.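 Cells were grown in 96-well plates and exposed to each compound for 48 hours at five concentrations; endpoints were interpolated linearly between bracketing concentrations, or set to the highest concentration if not reached. The concentration for 50% growth inhibition is given as GI50.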 Activity calls are given as the source filed them. No stated cut-off is given here; in the data, active = GI50 up to about 1.1 µM and inactive = higher.

The experiment has as its system NCI-H322M. As to the kind of experiment: NCI tumour cell line growth inhibition, 48 h.
In the case of `O=C1OC(C(O)CO)C(O)=C1O` (stereo not drawn), the GI50 was inactive: > 100 µM.
The value for `O=C(O)CCCNS(=O)(=O)c1ccc2ccccc2c1` was inactive: > 100 µM; that for `CCOC(=O)c1ccc(N2C(=O)Cc3ccccc3C2=O)cc1` was inactive: > 100 µM; that for `CCOC(=O)CNC(=O)C(CCC(=O)N(C)O)NC(=O)CCC(N)C(=O)O` (stereo not drawn) was inactive: > 100 µM.
Regarding `COc1cc2c3c(c4ccc(O)cc4c2cc1OC)[C@@H](O)[C@@H]1CCCN1C3`, the GI50 is active: < 0.001 µM.
With `NC(CSC1(c2ccc(Cl)cc2)c2ccccc2-c2ccccc21)C(=O)O` (stereo not drawn), the GI50 was inactive: 41.1 µM.
In the case of `COc1ccc2[nH]cc([C@@H]3C4CCC(C4)[C@H]3NCc3cccc(CN[C@H]4C5CCC(C5)[C@@H]4c4c[nH]c5ccc(OC)cc45)c3)c2c1`, the GI50 is inactive: 1.62 µM and inactive: 1.63 µM.
`CC(=O)N1C(=O)/C(=C\C(=O)c2ccc(Cl)cc2)c2ccccc21`: the GI50 is inactive: 21.7 µM.
The value for `O=c1cc(O)c1=O` was inactive: > 100 µM; that for `COc1cc(Cc2cc(OC)c(OC)c(OC)c2)ccc1O` was inactive: 11.9 µM; that for `COc1c(Cl)c(=O)oc2ccc(Cl)cc12` was inactive: > 100 µM.
Under `CCc1ccccc1NC(=O)C1=C(C)NC(C)=C(C(=O)Nc2ccccc2CC)C1c1cccc([N+](=O)[O-])c1` stands inactive: 28 µM; under `CC1(C)C2CCC3(OCCO3)C1C(O)C2` (stereo not drawn), inactive: > 100 µM.
With `O=c1[nH]cnc(NC2C=C(CO)C(O)C2O)c1[N+](=O)[O-]` (stereo not drawn), the GI50 is inactive: > 100 µM.
As to `O=C1N/C(=N/N=C/c2c[nH]c3ccccc23)N/C1=C\c1cccs1`, the GI50 was inactive: > 100 µM.
Turning to `O=C1c2ccccc2C(=O)c2c(OCCOCCO)cccc21`, the GI50 was inactive: 82.4 µM.
The value for `O=C(N[C@@H](Cc1ccccc1)B(O)O)[C@H](Cc1cccc2ccccc12)NC(=O)N1CCOCC1` was active: 0.155 µM; that for `COc1cc(/C=C2\C[C@H]3[C@@H]4CC=C5C=C(N6CCCC6)CC[C@]5(C)[C@H]4CC[C@]3(C)C2=O)cc(OC)c1OC` was inactive: 9.89 µM.
`C/C(=N\N)C(CN1CCCCC1)C(c1ccccc1)c1c(O)c2ccccc2oc1=O` (stereo not drawn): the GI50 was inactive: > 100 µM.
The value for `Cc1cc(C)n(C(=CC(=O)C(Cl)Cl)n2nc(C)cc2C)n1` was inactive: 13.1 µM; that for `CSCCC(N)P(C)(=O)O` (stereo not drawn) was inactive: > 100 µM; that for `COc1ccc(OC)c(C(=O)/C=C/c2cc(O)c(O)cc2F)c1` was active: 0.546 µM.
In the case of `O=C1C(S(=O)(=O)c2ccccc2)=C(CS(=O)(=O)c2ccccc2)[C@@H](OCc2ccccc2)[C@@H]1OCc1ccccc1`, the GI50 was inactive: 19 µM.
Under `CC1(C)C=[N+]([O-])C(C)(C)N1O` stands inactive: > 10 µM; under `Cn1c(=O)ccc2c(=O)c3ccccc3oc21`, inactive: > 100 µM.
On to `COc1cc(C)cc2c1C(=O)C(NC(C)=O)=CC2=O`, for which the GI50 is inactive: > 100 µM.
For the compound `CC1(C)CC2C(C1=O)C1(C)CCCC2(C)C1=O` (stereo not drawn), the GI50 was inactive: > 100 µM.
The value for `COc1ccc(/C=C2\CCC/C(=C\c3ccc(O)c(CN4CCCCC4)c3)C2=O)cc1` was inactive: 16.4 µM; that for `O=C1CCC(c2nc3cc(Cl)ccc3o2)C(=O)N1` (stereo not drawn) was inactive: > 100 µM.
Under `Cc1nc(Cl)c(C)c(Cl)n1` stands inactive: > 100 µM.
Under `N#Cc1c2c(c(-c3cccs3)n(C3OC(CO)C(O)C(O)C3O)c1=S)CCc1ccccc1-2` (stereo not drawn) stands inactive: > 100 µM.
As for `C/C(Cc1ccc2c(c1)OCO2)=N\N=c1\sc2ccccc2n1C`, the GI50 was inactive: > 100 µM.
As to `COc1ccc(P2(=S)SP(=S)(c3ccc(Cl)cc3)S2)cc1` (stereo not drawn), the GI50 was inactive: > 100 µM.
In the case of `COC(=O)Nc1nc2cc(C(=O)c3ccc[nH]3)ccc2[nH]1`, the GI50 is inactive: 6.07 µM.
Turning to `CC(C)(C)C1=CC(=N/N=c2\scc(-c3ccccc3)n2Cc2ccccc2)C=C(C(C)(C)C)C1=O`, the GI50 is inactive: > 100 µM.
Under `c1ccc(COc2cccc3ccc[n+](Cc4ccccc4)c23)cc1` stands inactive: 11.6 µM.
For `Cn1cc(-c2csc(-c3cn(C)c4ccccc34)n2)c2ccccc21`, the GI50 was inactive: 24.5 µM.
The value for `O=C1CCC(=O)C1=NNc1ccccc1` was inactive: > 100 µM; that for `C=C[C@@H]1C(CO)=CCC2[C@H]1CCC1C(C)(C)C(=O)CC[C@]21C` (stereo partly drawn) was inactive: > 100 µM.
`Cc1nc2sc3cccc(Cl)c3n2c(=O)c1/N=N/c1ccc(Cl)cc1`: the GI50 is inactive: > 100 µM.
As for `CN1Nc2ccccc2CC1=O`, the GI50 was inactive: > 100 µM.
Under `COc1nc(Cl)nc(N[C@H](C)c2c3ccccc3cc3ccccc23)n1` stands inactive: 2.2 µM.
The value for `COC(=O)CCC(=O)c1ccc2c(c1)CCC2` was inactive: > 100 µM; that for `CC(O)C(CO)NC(=O)C1CSSCC(NC(=O)C(N)Cc2ccccc2)C(=O)NC(Cc2ccccc2)C(=O)NC(Cc2c[nH]c3ccccc23)C(=O)NC(CCCCN)C(=O)NC(C(C)O)C(=O)N1` (stereo not drawn) was inactive: > 100 µM.
Under `O=C1c2c(Br)sc(Br)c2C(=O)C1(O)O` stands inactive: > 100 µM.
Regarding `Cc1ccc(C(=O)CC2=Nc3nnc(CCCCCCCc4nnc5n4C(=O)C(CC(=O)c4ccc(C)cc4)=N5)n3C2=O)cc1`, the GI50 is inactive: > 100 µM.
The value for `CN1NC(c2ccc(Cl)cc2)=C(C#N)C(=O)CC1c1ccccc1` (stereo not drawn) was inactive: > 100 µM; that for `CC(C)CC(N)C(=O)OCN1C(=O)C2C3C=CC(C2C1=O)C1C2C(=O)N(COC(=O)C(N)CC(C)C)C(=O)C2C31` (stereo not drawn) was inactive: > 100 µM; that for `O=C(Cc1ccccc1)NN1C(=O)C(Cl)C1c1ccc(Cl)cc1` (stereo not drawn) was inactive: > 100 µM.
Take `Cc1oc2c(c1C)S(=O)(=O)C(C#N)=CN2`: the GI50 was inactive: > 100 µM.
As for `CCC1=C(CC2NCCc3cc(OC)c(OC)cc32)CC2c3ccccc3CCN2C1` (stereo not drawn), the GI50 is inactive: 16.4 µM.
`CC1=CC(=O)CC2(C)CCC(C(C)CC(=O)CC(C)C)CC12` (stereo not drawn): the GI50 is inactive: 57.3 µM.
In the case of `Cc1ccc(-c2nc3cc(F)c(N4CCN(C)CC4)cc3[nH]2)cc1`, the GI50 is inactive: 19.5 µM.
For the compound `O=C(O)[C@@H](NS(=O)(=O)c1ccc(F)cc1)c1ccccc1`, the GI50 was inactive: > 100 µM.
The value for `CCCCCCCc1cscc1-c1cscc1Br` was inactive: > 100 µM; that for `C=C1C(=O)OC2C[C@@]3(C)CCCC(=C)C3CC12` (stereo partly drawn) was inactive: 15.2 µM; that for `O=C1NNC2NC(=O)C3(NN2C1=O)c1ccccc1-c1ccccc13` (stereo not drawn) was inactive: > 100 µM.
`O=C1C=CC=C/C1=C1/SC(c2ccccc2)=C(O)N1c1ccccc1`: the GI50 was inactive: > 100 µM.
Under `Oc1ccc2ccccc2c1/N=N/c1cccc2ccccc12` stands inactive: > 100 µM; under `CC1CCC(C(C)C)C(O[C@@H]2OC(=O)C[C@@H]2Sc2ccccc2)C1` (stereo partly drawn), inactive: 32 µM.
The value for `CC#CC#C/C(=C/C=CC(=O)OC)SC` was inactive: > 100 µM.
For `Cc1cc2c(cc1Cl)Sc1n[nH]c(=O)n1S2(=O)=O`, the GI50 was inactive: 61.5 µM.
Under `O=C(O)c1ccccc1CN1CCCC(C(=O)O)C1` (stereo not drawn) stands inactive: > 100 µM.
Under `COc1ccc2c(c1)Cc1c(NCCN(C)C)ccc(C(=O)NCCCN(C)CCCNC(=O)c3ccc(NCCN(C)C)c4c3Nc3ccc(OC)cc3C4)c1N2` stands active: < 0.01 µM; under `NC1=NS(=O)(=O)Nc2nc(-c3ccc([N+](=O)[O-])o3)[nH]c21`, inactive: 16.2 µM; under `NC1C2C=CC(C2)C1C(=O)O` (stereo not drawn), inactive: > 100 µM.
Regarding `C[N+](C)(C)CC(=O)N/N=c1\cc(C(=O)Nc2ccc(N=O)cc2C#N)oc2cc(O)ccc12`, the GI50 was inactive: > 100 µM.
Under `O=C1[C@@H]2C(c3c(Cl)cccc3Cl)=NO[C@@H]2C(=O)N1c1ccc(Cc2ccc(N3C(=O)[C@H]4C(c5c(Cl)cccc5Cl)=NO[C@H]4C3=O)cc2)cc1` stands inactive: > 100 µM.
On to `CCOC(=O)CC(=O)ON(C)C(=O)Cc1ccccc1`, for which the GI50 was inactive: > 100 µM.
Turning to `Cc1ccc(S(=O)(=O)N/N=C/C(=C/c2ccc(Cl)cc2)CC(/C=N/NS(=O)(=O)c2ccc(C)cc2)=C\c2ccc(Cl)cc2)cc1`, the GI50 was inactive: 14.9 µM.
The value for `[N-]=[N+]=NC1(c2ccccc2)C(=O)Nc2ccccc2C1=O` (stereo not drawn) was inactive: 88.5 µM; that for `Clc1cc(Cl)cc(C2ON=C(c3ccccc3)N2C23CC4CC(CC(C4)C2)C3)c1` (stereo not drawn) was inactive: > 10 µM.
The value for `C=C1N(C)c2ccc(S(=O)(=O)c3ccc4c(c3)C(C)(C)C(=C)N4C)cc2C1(C)C` was inactive: 73.6 µM.
The value for `COc1ccc(C2ON(c3ccccn3)CC=C2C)cc1` (stereo not drawn) was inactive: > 100 µM.
On to `C=CCCC(=O)CC(=O)OCc1ccccc1`, for which the GI50 is inactive: > 100 µM.
In the case of `NCCCCC(N)C(=O)N1CCN(c2nc(N3CCCC3)c3nc(Cl)c(NCc4ccccc4)nc3n2)CC1` (stereo not drawn), the GI50 is inactive: 18 µM.
Consider `O=C(Nc1ccccc1C(=O)NCCCO)/C(=C/c1ccccc1O)NC(=O)c1ccccc1`, for which the GI50 is inactive: > 92 µM.
Consider `CC1C2CC=CC(=O)[C@@]2(C)CCC12OCCO2` (stereo partly drawn), for which the GI50 was inactive: > 100 µM.
Under `CC1(C)C(O)C[C@@H](O)[C@@]2(C)C1CC[C@]1(C)C2C[C@@H](O)[C@@H]2C([C@@]3(C)CC[C@@H](C(C)(C)O)O3)CCC21C` (stereo partly drawn) stands inactive: 19.9 µM; under `Cc1ccc2c(O)cc(-c3cc(C)sc3C)nc2n1`, inactive: 5.69 µM.
Under `Cc1occc1/C(S)=N\c1ccc(Cl)c(C(=O)OCC(F)(F)F)c1` stands inactive: 29.4 µM; under `CC#N.O[C@@H]1CCCC[C@@H]1O.O[C@@H]1CCCC[C@@H]1O.[TeH2]`, inactive: 69.5 µM.
On to `COc1ccc2cc(CNCCCCCCCCCCCCNCc3ccc4cc(OC)ccc4c3)ccc2c1`, for which the GI50 was inactive: 18.4 µM.
